pIC50: −log10 of the molar value. IC50 is the fitted dose that halves viability relative to control wells, and lower means more sensitive; where the fit passes the top or lowest dose, that dose stands as a limit. AUC, from the same fit, is the share of area under the viability curve across the 256-fold dose range; the more sensitive the line, the further below 1. For some of these results: A top dose marked as inferred was derived from the fitted curves, not read from the paper.
Columns and labels:
Experiment in all cases: Viability of human cancer cell lines after 72 h of drug (GDSC screen)
[1] = compound: O=C(/C=C/c1ccccc1)NC(NC(=S)Nc1cccc2cccnc12)C(Cl)(Cl)Cl [Salubrinal]; details: top dose 16 µM; top dose inferred
Protocol: (§1)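 Human cancer cell lines in 384-well plates, medium with 10% serum, drug for 72 h over a 256-fold dose range (nine 2-fold or five 4-fold steps up to the top dose). Adherent lines were fixed and stained with the nucleic acid dye Syto60, suspension lines read with resazurin; signal relative to control wells, capped at 0 and 100%. One two-parameter sigmoid per drug and line, fitted in a mixed model over all curves with the slope shared within a line.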

[2] = compound: CC1(C)CCC(c2ccc(Cl)cc2)=C(CN2CCN(c3ccc(C(=O)NS(=O)(=O)c4ccc(N[C@H](CCN5CCOCC5)CSc5ccccc5)c(S(=O)(=O)C(F)(F)F)c4)cc3)CC2)C1 [ABT-263]; details: top dose 2 µM; top dose inferred
Protocol: as §1

[3] = compound: COc1cc(/C=C/C(=O)N2CCC=CC2=O)cc(OC)c1OC [piperlongumine]; details: top dose 10 µM
Protocol: as §1

[4] = compound: Cn1cc(/C=C2\C(=O)Nc3cccnc32)c2ccccc21 [GW 441756]; details: top dose 2 µM; top dose inferred
Protocol: as §1

[5] = compound: CC(=O)Nc1nc(C)c(-c2ccc(Cl)c(S(=O)(=O)NCCO)c2)s1 [PIK-93]; details: top dose 20 µM
Protocol: as §1

[6] = compound: COc1cc2ncn(-c3cc(OCc4ccccc4C(F)(F)F)c(C(N)=O)s3)c2cc1OC [GW843682X]; details: top dose 0.256 µM
Protocol: as §1

Cell Line | AUC [1] | pIC50 [1] | AUC [2] | pIC50 [2] | AUC [3] | pIC50 [3] | AUC [4] | pIC50 [4] | AUC [5] | pIC50 [5] | AUC [6] | pIC50 [6]
D-392MG (glioma, adherent) | 0.919 | < 4.80 | 0.98 | < 5.70 | 0.793 | 5.19 | 0.934 | < 5.70 | 0.904 | < 4.70 |  | 
SIG-M5 (acute myeloid leukaemia, suspension) | 0.87 | 5.05 |  |  |  |  |  |  | 0.162 | 6.76 | 0.559 | 7.65
NCI-H2196 (small cell lung carcinoma, adherent) | 0.971 | < 4.80 |  |  |  |  |  |  | 0.822 | 4.90 | 0.926 | < 6.59
K-562 (chronic myeloid leukaemia, suspension) |  |  | 0.98 | < 5.70 |  |  |  |  |  |  | 0.662 | 7.35
NCI-H128 (small cell lung carcinoma, suspension) | 0.936 | < 4.80 |  |  |  |  |  |  |  |  | 0.973 | < 6.59
ECC12 (stomach, suspension) | 0.888 | < 4.80 |  |  |  |  |  |  |  |  |  | 
EHEB (lymphoid neoplasm, suspension) |  |  | 0.637 | 6.45 | 0.79 | 5.16 | 0.953 | < 5.70 |  |  | 0.912 | < 6.59
IA-LM (large cell lung carcinoma, adherent) |  |  | 0.931 | < 5.70 | 0.911 | < 5.00 | 0.974 | < 5.70 | 0.953 | < 4.70 | 0.461 | 7.91
Hs-445 (Hodgkin lymphoma, suspension) | 0.977 | < 4.80 |  |  | 0.828 | 5.26 |  |  | 0.826 | 4.96 | 0.699 | 7.26
KOPN-8 (B-cell leukaemia, suspension) |  |  | 0.654 | 6.51 | 0.666 | 5.77 | 0.984 | < 5.70 | 0.33 | 6.34 | 0.584 | 7.58
CAL-148 (breast, suspension) | 0.928 | < 4.80 |  |  |  |  |  |  | 0.72 | 5.31 | 0.718 | 7.20
HCC-33 (small cell lung carcinoma, adherent) | 0.953 | < 4.80 |  |  |  |  |  |  | 0.75 | 5.18 | 0.808 | 6.87
KALS-1 (glioma, adherent) | 0.951 | < 4.80 |  |  | 0.756 | 5.33 |  |  | 0.792 | 4.88 | 0.576 | 7.55
BC-3 (B-cell lymphoma, suspension) | 0.871 | 4.91 |  |  |  |  |  |  | 0.576 | 5.71 | 0.876 | 6.68
NCI-H2171 (small cell lung carcinoma, suspension) | 0.971 | < 4.80 |  |  |  |  |  |  | 0.605 | 5.63 | 0.971 | < 6.59
UACC-812 (breast, adherent) | 0.986 | < 4.80 |  |  |  |  |  |  | 0.962 | < 4.70 |  | 

Cell Line | AUC [1] | pIC50 [1] | AUC [2] | pIC50 [2] | AUC [3] | pIC50 [3] | AUC [4] | pIC50 [4] | AUC [5] | pIC50 [5] | AUC [6] | pIC50 [6]
SNU-C2B (large intestine, adherent) |  |  | 0.963 | < 5.70 | 0.7 | 5.56 | 0.973 | < 5.70 | 0.868 | < 4.70 | 0.437 | 7.99
NCI-H1963 (small cell lung carcinoma, suspension) | 0.828 | 5.09 |  |  |  |  | 0.991 | < 5.70 | 0.967 | < 4.70 | 0.384 | 8.09
A704 (kidney, adherent) |  |  | 0.702 | 6.34 | 0.805 | 5.31 | 0.949 | < 5.70 | 0.904 | < 4.70 | 0.951 | < 6.59
HEL (acute myeloid leukaemia, semi-adherent) | 0.858 | 5.01 |  |  | 0.75 | 5.55 |  |  | 0.828 | 5.02 | 0.487 | 7.83
TGBC24TKB (biliary tract, adherent) |  |  |  |  | 0.969 | < 5.00 |  |  | 0.904 | < 4.70 | 0.572 | 7.61
HCC1599 (breast, suspension) | 0.846 | 4.84 |  |  |  |  |  |  | 0.401 | 6.19 | 0.538 | 7.69
COLO-829 (melanoma, adherent) | 0.92 | < 4.80 |  |  | 0.913 | < 5.00 |  |  | 0.856 | < 4.70 | 0.948 | < 6.59
HCC2998 (large intestine, adherent) | 0.864 | 4.88 |  |  | 0.75 | 5.50 | 0.971 | < 5.70 | 0.931 | < 4.70 |  | 
IST-MES1 (mesothelioma, adherent) | 0.933 | < 4.80 |  |  | 0.818 | 5.24 |  |  | 0.912 | < 4.70 | 0.837 | 6.76
SU-DHL-1 (anaplastic large cell lymphoma, suspension) | 0.985 | < 4.80 |  |  |  |  |  |  | 0.933 | 4.78 | 0.805 | 7.05
SW872 (soft tissue, adherent) | 0.952 | < 4.80 |  |  | 0.751 | 5.52 |  |  | 0.878 | 4.77 | 0.594 | 7.55
EW-12 (Ewing sarcoma, suspension) | 0.974 | < 4.80 |  |  |  |  |  |  |  |  | 0.975 | < 6.59
KP-N-RT-BM-1 (neuroblastoma, semi-adherent) |  |  |  |  |  |  |  |  |  |  | 0.754 | 6.95
HCC1500 (breast, adherent) |  |  | 0.361 | 7.29 | 0.834 | 5.16 | 0.988 | < 5.70 | 0.919 | < 4.70 |  | 
JHOS-3 (ovary, adherent) |  |  | 0.908 | < 5.70 | 0.833 | 5.04 | 0.949 | < 5.70 | 0.784 | 4.95 |  | 
HCT-116 (large intestine, adherent) |  |  | 0.987 | < 5.70 | 0.75 | 5.50 | 0.98 | < 5.70 | 0.768 | 5.15 |  | 

Reference: the supplement of paper PMC4967469
